Measurements taken from the supplement of paper PMC4967469.

Assays:
Test in all cases: Viability of human cancer cell lines after 72 h of drug (GDSC screen)
[1] = compound: CC(=O)O[C@@]12CO[C@@H]1C[C@H](O)[C@@]1(C)C(=O)[C@H](O)C3=C(C)[C@@H](OC(=O)[C@H](O)[C@@H](NC(=O)OC(C)(C)C)c4ccccc4)C[C@@](O)([C@@H](OC(=O)c4ccccc4)[C@H]21)C3(C)C [Docetaxel]; conditions: top dose 0.0125 µM
Method: (§1)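 Human cancer cell lines in 384-well plates, medium with 10% serum, drug for 72 h over a 256-fold dose range (nine 2-fold or five 4-fold steps up to the top dose). Adherent lines were fixed and stained with the nucleic acid dye Syto60, suspension lines read with resazurin; signal relative to control wells, capped at 0 and 100%. One two-parameter sigmoid per drug and line, fitted in a mixed model over all curves with the slope shared within a line.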

[2] = compound: CC1(C)CNc2cc(NC(=O)c3cccnc3NCc3ccncc3)ccc21 [AMG-706]; conditions: top dose 2 µM; top dose inferred
Method: as §1

[3] = compound: CC1=C2C[C@H]3[C@@H](CC=C4C[C@@H](O)CC[C@@]43C)[C@@H]2CC[C@]12O[C@@H]1C[C@H](C)CN[C@H]1[C@H]2C [Cyclopamine]; conditions: top dose 16 µM; top dose inferred
Method: as §1

[4] = compound: CN1CCN(c2ccc([N+](=O)[O-])c3no[n+]([O-])c23)CC1 [NSC-207895]; conditions: top dose 20 µM; top dose inferred
Method: as §1

[5] = compound: O=C(/C=C/c1cccc(S(=O)(=O)Nc2ccccc2)c1)NO [Belinostat]; conditions: top dose 20 µM; top dose inferred
Method: as §1

[6] = compound: Cc1[nH]c(/C=C2\C(=O)Nc3ccc(S(=O)(=O)Cc4c(Cl)cccc4Cl)cc32)c(C)c1C(=O)N1CCC[C@@H]1CN1CCCC1 [PHA-665752]; conditions: top dose 2 µM
Method: as §1

[7] = compound: COCC[n+]1c2c(n(Cc3cnccn3)c1C)C(=O)c1ccccc1C2=O [YM155]; conditions: top dose 5.12 µM
Method: as §1

[8] = compound: OCCCNc1cc(-c2ccnc(Nc3cccc(Cl)c3)n2)ccn1 [CGP-60474]; conditions: top dose 0.256 µM; top dose inferred
Method: as §1

[9] = compound: Cc1sc2c(c1C)C(c1ccc(Cl)cc1)=N[C@@H](CC(=O)OC(C)(C)C)c1nnc(C)n1-2 [JQ1]
Method: as §1

[10] = compound: COC(=O)[C@H](CCSC)NC(=O)c1ccc(NC[C@@H](N)CS)cc1-c1ccccc1 [FTI-277]; conditions: top dose 1.024 µM; top dose inferred
Method: as §1

[11] = compound: c1ccc2c(CCNc3ccc(Nc4ccncc4)cc3)c[nH]c2c1 [JNJ-26854165]; conditions: top dose 10 µM
Method: as §1

[12] = compound: Cc1ccc(C(=O)N(CCCN)[C@@H](c2nc3cc(Cl)ccc3c(=O)n2Cc2ccccc2)C(C)C)cc1 [SB-715992]; conditions: top dose 0.128 µM; top dose inferred
Method: as §1

[13] = compound: C[C@]1(O)C[C@@H](c2nc(-c3ccc4ccc(-c5ccccc5)nc4c3)c3c(N)nccn32)C1 [OSI-906]; conditions: top dose 2.56 µM; top dose inferred
Method: as §1

[14] = compound: CCOc1nc(NC(=O)Cc2cc(OC)ccc2OC)cc(N)c1C#N [JNK Inhibitor VIII]; conditions: top dose 10 µM; top dose inferred
Method: as §1

[15] = top dose 1 µM, screen: GDSC drug entry 1218, top dose inferred
[16] = top dose 2.56 µM, screen: GDSC drug entry 163

Cell Line	AUC [1]	IC50 [1] [nM]	AUC [2]	IC50 [2] [nM]	AUC [3]	IC50 [3] [nM]	AUC [4]	IC50 [4] [nM]	AUC [5]	IC50 [5] [nM]	AUC [6]	IC50 [6] [nM]	AUC [7]	IC50 [7] [nM]	AUC [8]	IC50 [8] [nM]	AUC [9, 15]	IC50 [9, 15] [nM]	AUC [9, 16]	IC50 [9, 16] [nM]	AUC [10]	IC50 [10] [nM]	AUC [11]	IC50 [11] [nM]	AUC [12]	IC50 [12] [nM]	AUC [13]	IC50 [13] [nM]	AUC [14]	IC50 [14] [nM]
A498 (kidney, adherent)	0.398	0.358	0.977	> 2000	0.973	> 16000	0.976	> 20000	0.952	> 20000	0.857	> 2000	0.786	3540	0.77	150	0.969	> 1000	0.709	850	0.86	> 1020	0.8	8000	0.961	> 128	0.924	> 2560	0.978	> 10000
CGTH-W-1 (thyroid, adherent)	–	–	0.563	186	0.986	> 16000	0.923	> 20000	0.552	1730	0.975	> 2000	0.062	< 20	0.73	71.9	0.971	> 1000	0.421	97.2	0.887	> 1020	0.892	> 10000	0.96	> 128	0.986	> 2560	0.963	> 10000
COLO-800 (melanoma, adherent)	0.45	0.572	0.983	> 2000	0.985	> 16000	0.915	> 20000	0.834	12400	0.97	> 2000	0.592	568	0.937	> 256	0.986	> 1000	0.981	> 2560	0.988	> 1020	0.801	4730	0.59	14	0.87	2280	0.969	> 10000
COR-L279 (small cell lung carcinoma, suspension)	0.959	> 12.5	0.991	> 2000	0.984	> 16000	0.941	> 20000	0.41	731	0.99	> 2000	0.263	73.6	0.83	137	0.911	> 1000	0.801	1090	0.989	> 1020	0.979	> 10000	0.776	45.6	0.986	> 2560	0.973	> 10000
CTB-1 (B-cell lymphoma, suspension)	0.844	> 12.5	0.976	> 2000	0.966	> 16000	–	–	–	–	0.978	> 2000	0.039	< 20	0.743	105	0.958	> 1000	0.633	426	0.975	> 1020	0.867	> 10000	0.757	59.2	0.947	> 2560	0.978	> 10000
D-247MG (glioma, adherent)	0.642	2.24	0.932	> 2000	0.876	> 16000	0.949	> 20000	0.444	830	0.975	> 2000	0.288	63.8	0.877	> 256	0.977	> 1000	0.678	608	0.974	> 1020	0.845	> 10000	0.859	> 128	–	–	0.978	> 10000
D-336MG (glioma, adherent)	0.654	2.37	0.976	> 2000	0.963	> 16000	0.903	> 20000	0.903	> 20000	0.975	> 2000	–	–	0.723	83.7	0.96	> 1000	0.672	558	0.947	> 1020	0.822	8200	0.614	18.1	–	–	0.979	> 10000
D-502MG (glioma, adherent)	0.71	4.3	0.954	> 2000	0.92	> 16000	0.965	> 20000	0.534	1620	0.957	> 2000	0.254	41.6	0.952	> 256	0.835	> 1000	0.918	> 2560	0.974	> 1020	0.887	> 10000	0.944	> 128	0.97	> 2560	0.958	> 10000
DB (B-cell lymphoma, suspension)	0.745	4.37	0.926	> 2000	0.978	> 16000	0.848	17800	0.13	< 78.1	0.98	> 2000	0.03	< 20	0.694	60.5	0.796	536	0.78	1190	0.979	> 1020	–	–	0.73	39.6	0.982	> 2560	0.906	> 10000
Daudi (Burkitt lymphoma, suspension)	0.99	> 12.5	0.988	> 2000	0.917	> 16000	0.669	3440	0.254	277	0.99	> 2000	0.018	< 20	0.642	37.3	–	–	–	–	0.99	> 1020	0.881	8170	0.876	99.5	0.979	> 2560	0.986	> 10000
ES4 (Ewing sarcoma, adherent)	–	–	0.973	> 2000	0.96	> 16000	0.917	> 20000	0.665	3870	0.966	> 2000	0.13	< 20	0.613	34.3	0.978	> 1000	0.84	2150	0.973	> 1020	0.869	> 10000	0.915	> 128	0.665	496	0.962	> 10000
KCL-22 (chronic myeloid leukaemia, suspension)	0.908	12.4	0.991	> 2000	0.935	> 16000	0.969	> 20000	0.318	428	0.99	> 2000	0.051	< 20	0.728	62.5	0.983	> 1000	0.711	563	0.988	> 1020	–	–	0.582	12.9	0.991	> 2560	0.991	> 10000
KGN (ovary, adherent)	0.668	2.55	0.97	> 2000	0.975	> 16000	–	–	0.316	339	0.98	> 2000	0.057	< 20	0.492	15.1	0.958	> 1000	0.43	98.8	0.911	> 1020	0.61	1340	0.635	20.5	0.902	> 2560	0.973	> 10000
MC116 (B-cell lymphoma, suspension)	0.933	9.25	0.999	> 2000	0.962	15100	0.941	15600	0.162	190	0.999	> 2000	0.003	< 20	0.685	44.6	–	–	–	–	0.996	> 1020	0.999	> 10000	0.569	11.7	0.997	> 2560	0.999	> 10000
MV-4-11 (leukaemia, suspension)	–	–	0.887	1540	0.969	> 16000	0.941	> 20000	0.193	192	0.872	1350	0.202	52.3	0.66	40.5	–	–	–	–	0.988	> 1020	0.628	1310	0.422	5.09	–	–	0.98	> 10000
NB7 (neuroblastoma, adherent)	–	–	0.983	> 2000	0.976	> 16000	0.364	517	0.364	516	0.975	> 2000	0.029	< 20	0.961	> 256	0.905	> 1000	0.606	318	0.985	> 1020	0.935	> 10000	0.835	89.4	0.974	> 2560	0.986	> 10000
SNB75 (glioma, adherent)	–	–	0.955	> 2000	0.954	> 16000	0.978	> 20000	0.565	2040	0.972	> 2000	0.314	74.9	0.563	25.7	0.957	> 1000	0.547	228	0.971	> 1020	0.944	> 10000	0.946	> 128	0.858	> 2560	0.962	> 10000

The IC50 comes from the fitted curve, where viability falls to half of the control; fits outside the tested doses are given as limits. For AUC the same curve is integrated over the 256-fold range of doses and scaled to a fraction; values near 1 show little effect. For some assays here: Any top dose called inferred is not printed in the source and was worked back from the curve model. For some assays here: Where an entry number is given, a second screen of the drug exists; the two often differ.
